# Test results taken from PubChem BioAssay AID624417 (National Center for Advancing Translational Sciences (NCATS), 2012).
# The campaign covered roughly 410,000 compounds. About 6,400 (1.6%) were called active. Inconclusive results, whose numbers are uncertain, are shown with a selection of clear calls. Calls follow the shape of the dose curve; as a rule, active = well fitted inhibition curve with a large enough effect; inconclusive = small, poorly fitted or top-dose-only effect; inactive = no such curve, though single readings can be large or run the other way. No potency is given beside an inconclusive call; the fits are too rough.
# Target: Glucagon-like peptide 1 receptor (Homo sapiens) (UniProt P43220)
# Experiment: qHTS of GLP-1 Receptor Inverse Agonists (Inhibition Mode); also: nearly all actives have a fitted effect of over 55% in size
# Conditions: HEK293 GLP-1R CRE-luciferase, luminescence, 24 h, GLP-1R form is constitutively active; activity change, negative = inhibition: at 38.3 µM (top of the series) unless noted
# Method in brief: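 Constitutively active GLP-1R drives a cAMP-responsive luciferase in stably transfected HEK293 cells; test compounds are added after overnight (12 h) attachment and left 24 hr, and signal loss in luminescence marks inhibition.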
# % is scaled to controls: 0 for no effect and ±100 for the full control effect; potency is read from the fitted curve at half-maximal effect; tags tell the direction and shape of the fitted curve.
# Sequence of UniProt P43220 (P43220 whole entry, looked up): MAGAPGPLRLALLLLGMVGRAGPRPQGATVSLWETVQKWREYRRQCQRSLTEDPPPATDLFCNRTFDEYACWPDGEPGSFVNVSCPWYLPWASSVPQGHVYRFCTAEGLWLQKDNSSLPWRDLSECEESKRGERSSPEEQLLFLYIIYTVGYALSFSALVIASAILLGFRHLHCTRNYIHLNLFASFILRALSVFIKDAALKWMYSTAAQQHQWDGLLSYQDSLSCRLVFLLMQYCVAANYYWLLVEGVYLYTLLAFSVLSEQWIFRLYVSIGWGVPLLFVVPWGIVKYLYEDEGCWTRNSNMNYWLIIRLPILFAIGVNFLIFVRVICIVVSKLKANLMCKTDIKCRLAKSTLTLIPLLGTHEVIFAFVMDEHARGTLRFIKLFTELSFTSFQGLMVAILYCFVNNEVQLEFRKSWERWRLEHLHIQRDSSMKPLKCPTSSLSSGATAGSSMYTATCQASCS
SMILES,Potency,"activity change, negative = inhibition"
COC(=O)[C@]1(Cc2ccccc2)N[C@H](CN(C)S(=O)(=O)c2ccc(OC(F)(F)F)cc2)[C@@H]2C(=O)N(Cc3ccccc3)C(=O)[C@@H]21,"inconclusive [inhibitor, partial curve, poor fit]",
CC(NCc1cccc(OCc2ccccc2)c1)C(O)c1ccccc1 (stereo not given),active: 8.91 µM,
COc1ccc(S(=O)(=O)Nc2c(O)c3ccccc3oc2=O)cc1,inactive,
O=C1c2ccccc2CC1(Cc1ccccc1)Cc1ccccc1,"inconclusive [inhibitor, partial curve, poor fit]",
Cc1c(-c2nsc(NC(=O)c3cccs3)n2)nnn1-c1ccc(Cl)cc1,inactive,
CC(C)CC1C(=O)N(Cc2cn(CCC3OCCCO3)nn2)CCS(=O)(=O)N1Cc1ccc(-c2ccncc2)cc1 (stereo not given),inactive,
CCc1nc2c(OCc3ccc(C(F)(F)F)cc3)cccn2c1N(C)C(=O)c1ccc(OC)cc1,"inconclusive [inhibitor, single point]",
CCN(CC)CCCNC(=O)c1ccc2c(c1)N(Cc1c(F)cccc1Cl)C(=O)c1ccccc1S2,"inconclusive [inhibitor, partial curve, poor fit]",
O=C(NNS(=O)(=O)c1ccc2ccccc2c1)C1CCN(Cc2ccccc2)CC1,"inconclusive [inhibitor, single point]",
CCc1nc2ccc(C(=O)NCc3ccc(OC)cc3)cn2c1N(CC)Cc1cccc(Br)c1,"inconclusive [inhibitor, single point]",
CCSc1ncc(Cl)c(C(=O)N(Cc2ccccc2Cl)C2CCS(=O)(=O)C2)n1 (stereo not given),inactive,
Oc1ccc(C[C@@H]2CNC(=S)N2CCc2cc(C(F)(F)F)cc(C(F)(F)F)c2)cc1,"inconclusive [inhibitor, partial curve, poor fit]",
CCOc1cc(NCc2ccccc2)c2ncn(C(C)C)c2c1,"inconclusive [inhibitor, partial curve, poor fit]",
Cc1cccc(C(=O)Oc2ccc(/C=N/NC(=O)c3ccccc3O)cc2)c1,"inconclusive [inhibitor, single point]",
O=C(CCS(=O)(=O)c1ccccc1)Nc1nc(-c2ccccn2)cs1,"inconclusive [inhibitor, single point]",
CCOc1ccc(C(=O)N(Cc2ccc(N(C)C)cc2)C2CCS(=O)(=O)C2)cc1 (stereo not given),"inconclusive [inhibitor, full curve, poor fit]",
Cc1[nH]n(-c2ccccc2)c(=O)c1C(C[N+](=O)[O-])c1ccc(Br)cc1 (stereo not given),"inconclusive [inhibitor, partial curve]",
C/C=C/c1ccc(OCCNCc2ccccc2)c(OC)c1,"inconclusive [inhibitor, partial curve]",
CCCc1c(-c2cccc(Br)c2)ncn1Cc1cccc(-c2ccccc2)c1,"inconclusive [inhibitor, partial curve, poor fit]",
COc1cc(/C=N/O)ccc1OCc1ccccc1Cl,"inconclusive [inhibitor, single point]",

SMILES,Potency,"activity change, negative = inhibition"
Cc1ccc(C(=O)N(CC(=O)NC2CCCC2)c2ccc(F)cc2)s1,"inconclusive [inhibitor, single point]",
CCc1cc(C(=O)Nc2ccc(S(=O)(=O)NC3=NCCCCC3)cc2)sc1C,"inconclusive [inhibitor, single point]",
CC(=O)CSc1nnc2c3ccccc3nc(C(C)(C)C)n12,inactive,
O=C(CSc1nnc(-c2ccc(S(=O)(=O)N3CCCC3)cc2)o1)NCC1CCCO1 (stereo not given),,inactive: 1.22% [at 7.66 µM]
O=c1[nH]c(/C=C2\C=Nc3ccccc32)c(O)n1Cc1ccccc1F,inactive,
CCN(CC(=O)NCc1ccc(Cl)cc1)C(=O)CSc1ccc(F)cc1,"inconclusive [inhibitor, partial curve, poor fit]",
COc1cc(-c2c(-c3ccc4c(c3)OCO4)noc2-c2ccsc2)ccc1F,"inconclusive [inhibitor, full curve, poor fit]",
COc1ccc(-c2csc(NC(=O)C3CC(=O)N(Cc4ccccc4)C3)n2)cc1OC (stereo not given),"inconclusive [inhibitor, single point]",
CCOC(=O)C(CC)Sc1ncnc2sc3c(c12)CCCC3 (stereo not given),"inconclusive [inhibitor, single point]",
Cc1cccc(C)c1NC(=S)Nc1ccccc1C(=O)NCc1ccco1,inactive,
c1ccc(-c2nc3c4ccccc4ccn3c2CN2CCOCC2)cc1,"inconclusive [inhibitor, single point]",
CCCCn1c(=N)n(CC(O)c2ccccc2)c2ccccc21 (stereo not given),"inconclusive [inhibitor, single point]",
COc1cc(C)c(C)cc1S(=O)(=O)N1CCN(Cc2ccc3c(c2)OCO3)CC1,"inconclusive [inhibitor, single point]",
O=C1NC(=S)S/C1=C/c1ccc(N2CCOCC2)o1,inactive,
CCOc1ccc(S(=O)(=O)N2CCC(N3CCN(Cc4ccc(F)cc4)C(=O)C3=O)CC2)cc1,"inconclusive [inhibitor, single point]",
CCS(=O)(=O)N1CCc2cc(C(=O)Nc3cccc(C)c3C)ccc21,inactive,
Cc1ccc(CNC(=O)CN(c2cccc([N+](=O)[O-])c2)S(=O)(=O)c2ccccc2)cc1,"inconclusive [inhibitor, single point]",
COc1cccc(/C=C2/CN(C)CC3=C2OC(N)=C(C#N)C3c2cccc(OC)c2)c1 (stereo not given),"inconclusive [inhibitor, partial curve]",
CC(C)(C)CC(C)(C)N=C1Nc2ccccc2NC12C[C@H]1CCC(=O)N3CC[C@@H](C2)[C@@H]13 (stereo not given in full),"inconclusive [inhibitor, single point]",
CCOC(=O)C1(Cc2cccc(F)c2)CCN(Cc2ccc(COC)o2)CC1,"inconclusive [inhibitor, partial curve, poor fit]",
